Among all 420,000 compounds or so, about 64,000 (15%) were called active. The shares of active, inactive and inconclusive entries below differ from those in the screen. Calls come from the whole dose curve; as a rule, active = well fitted inhibition curve with a large enough effect; inconclusive = small, poorly fitted or top-dose-only effect; inactive = flat fitted curve, though single readings scatter. Potencies of inconclusive entries are left out as doubtful fits.
Assay: qHTS for Inhibitors of human tyrosyl-DNA phosphodiesterase 1 (TDP1): qHTS in cells in absence of CPT; note: nearly all actives have a fitted effect of over 55% in size
Conditions: DT40 Tdp1-/- hTDP1 cells, no CPT, ATP luminescence, 48 h; activity change, negative = growth inhibition: at 46.2 µM (top of the series) unless noted
Outline: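 Seeded 400 DT40-hTDP1 cells/well (vehicle DMSO, no 20 nM CPT); pinned compounds; ≥48 hr at 37 °C; CellTiter-Glo luminescence as viability measure.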
% is set by controls: 0 for no effect and ±100 for the full control effect; potency is the fitted concentration of half-maximal effect; tags give direction and shape of the fitted curve.

Structure (SMILES) | Potency | activity change, negative = growth inhibition
CCOc1ccccc1C1CC(c2ccc(Br)cc2)Nc2nc(N)nn21 (stereo not drawn) | inconclusive [inhibitor, single point] | –
Cc1cccc(-c2cnc(C(O)c3ccc(Cl)cc3C)[nH]2)c1 (stereo not drawn) | active: 18.4 µM | –
CCc1ccc(S(=O)(=O)c2nnn3c2nc(NC2CCCC2)c2sccc23)cc1 | inconclusive [inhibitor, single point] | –
COc1ccc(-n2c(C)cc(-c3csc(N)n3)c2C)cc1 | inconclusive [inhibitor, single point] | –
COc1ccc(CCNC(=O)CCc2c(C)nc3nc(C)nn3c2C)cc1OC | – | inactive: 16.7%
CCOc1ccccc1NC(=O)CN1CCC(NC(=O)Nc2ccccc2)CC1 | inconclusive [inhibitor, single point] | –
C=C1CSc2nc(=O)c3c(C)c(C)sc3n21 | – | inactive: -1.13%
CCN1CCN(c2nc(N(C)c3ccccc3)nc(N)c2[N+](=O)[O-])CC1 | – | inactive: -26.1%
COC(=O)c1ccc(Nc2cc(C)nc3ccc(C)cc23)cc1 | active: 20.6 µM | –
COc1ccc(CCC(=O)N(c2nnc(-c3cccnc3)s2)C(C)C)cc1 | inconclusive [inhibitor, single point] | –
CC(=O)N1c2nc(-c3ccco3)nn2C2(CCCCC2)[C@@H]2CCCC[C@@H]21 | inconclusive [inhibitor, partial curve] | –
COc1ccc(NC(=O)CN(C)S(=O)(=O)c2ccc3[nH]c4c(c3c2)CCCC4)cc1Cl | inconclusive [inhibitor, single point] | –
O=C(Nc1ccc(C(=O)N2CCOCC2)cc1)Nc1cccc(C(F)(F)F)c1 | inconclusive [inhibitor, partial curve] | –
CCN(CC)CCNC(=O)c1ccc(NC(=O)c2cc(-c3ccncc3)nc3ccccc23)cc1 | active: 23.1 µM | –
COc1ccc(CN(C)C[C@H]2OCCCC[C@@H](C)Oc3ccc(NC(=O)c4ccccc4)cc3C(=O)N([C@H](C)CO)C[C@@H]2C)cc1 | inconclusive [inhibitor, partial curve, poor fit] | –
N#Cc1ccc(C(=O)N2CCCCC2c2cc(C(=O)Nc3cccc(C#N)c3)no2)cc1 (stereo not drawn) | inconclusive [inhibitor, single point] | –
O=c1onc(-c2ccccc2)c2ccccc12 | – | inactive: 13.1%
O=C(Nc1cccc(Cl)c1)Nc1nc(-c2ccccc2)cs1 | inconclusive [inhibitor, single point] | –
COc1ccc(-n2ccn(Cc3ccc(C)cc3)c(=O)c2=O)cc1OC | – | inactive: -0.219%
Cc1ccc(S(=O)(=O)N2CCC(=O)N(CCOC(=O)Nc3ccccc3C)CC2)cc1 | inconclusive [inhibitor, single point] | –
O=C(CSc1ccc2ccccc2n1)Nc1nsc(-c2ccc(Cl)cc2)n1 | inconclusive [inhibitor, single point] | –
CC(C)C[C@H]1CNC(=S)N1C[C@H]1CCCN1C[C@H](Cc1ccc(O)cc1)N1C[C@H](Cc2ccccc2)N(CC2CCCCCC2)C1=S | active: 18.4 µM | –
CCc1ccc(/C=C2/Sc3ccccc3N(CC(=O)NCCCN3CCOCC3)C2=O)cc1 | active: 20.6 µM | –

Structure (SMILES) | Potency | activity change, negative = growth inhibition
COc1ccc(Cn2c(SCc3ccc(C(=O)NCc4ccccc4F)cc3)nc3cccnc32)cc1 | inconclusive [inhibitor, single point] | –
Cc1ccc2cc(CCNC(=O)c3cccs3)c(=O)[nH]c2c1C | inconclusive [inhibitor, single point] | –
CC(C)N(C(=O)[C@H]1C[C@H](CC(=O)NCc2cccc(C(F)(F)F)c2)C(=O)N2CCc3c([nH]c4cc(-c5ccco5)ccc34)[C@]12C)C(C)C | inconclusive [inhibitor, single point] | –
COc1ccc2nc(SCC(=O)NC3CCCCC3C)[nH]c2c1 (stereo not drawn) | active: 9.2 µM | –
CN(CCOc1ccccc1)C(=O)C1CCN(C(=O)c2ccc(F)cc2)CC1 | inconclusive [inhibitor, partial curve] | –
Cc1cccc(-n2c(=O)c3c(c4cc(C)ccc4n3C)n(Cc3ccccc3F)c2=O)c1 | inconclusive [inhibitor, partial curve] | –
COc1ccccc1N1CCN(S(=O)(=O)CCNC(=O)c2cc(OC)c(OC)c(OC)c2)CC1 | inconclusive [inhibitor, single point] | –
CN1C(=O)/C(=C2\SC(N)=NC2=O)c2ccccc21 | active: 25.9 µM | –
CC(C)(C)c1ccc(C(=O)NC(=S)N2CCCCCC2)cc1 | active: 13 µM | –
N#C/C(=C(/O)CSc1ccccc1C(=O)O)c1nc2ccccc2s1 | inconclusive [inhibitor, single point] | –
CN(C)Cc1ccccc1Sc1ccc(O)cc1O | – | inactive: -19.8%
Cc1cccc2c1OCC/C2=N\NC(=O)COc1ccccc1Cl | inconclusive [inhibitor, partial curve] | –
S=c1[nH]nc(C2CCCCC2)n1/N=C/C=C/c1ccccc1 | inconclusive [inhibitor, partial curve, poor fit] | –
O=c1n(Cc2ccccc2)c2cc(Cl)cnc2n1Cc1ccccc1 | inconclusive [inhibitor, single point] | –
COc1ccc2cc(CCNC(=O)c3cccs3)c(=O)[nH]c2c1 | inconclusive [inhibitor, single point] | –
COc1ccc(CNC(=O)c2cccc(NC(=O)N3CCSc4ncccc43)c2)cc1 | inconclusive [inhibitor, single point] | –
Cc1cccc(NC(=S)N(CCCN2CCOCC2)C(C)c2cc3ccccc3o2)c1 (stereo not drawn) | – | inactive: -29.6%
COc1ccccc1C(=O)Oc1ccc(N2C(=O)CCC2=O)cc1 | inconclusive [inhibitor, full curve, poor fit] | –
CC1CN(C(=O)/C=C/c2ccccc2[N+](=O)[O-])CC(C)O1 (stereo not drawn) | – | inactive: -2.82%
Cc1oc(-c2ccc(F)cc2F)nc1CN1CCN(C(=O)c2ccco2)CC1 | inconclusive [inhibitor, partial curve, poor fit] | –
COc1ccc(F)c(CN2CCOc3ccc(CN4CCC(O)(c5cccnc5)CC4)cc3C2)c1 | inconclusive [inhibitor, single point] | –
CCCCCn1c(=O)c(C(=O)OCC)c(Cl)c2ccccc21 | inconclusive [inhibitor, single point] | –
N=C1c2ccccc2CN1NC(=O)c1cccc(S(=O)(=O)N2CCCCC2)c1 | inconclusive [inhibitor, full curve, poor fit] | –

Structure (SMILES) | Potency | activity change, negative = growth inhibition
CSc1ccccc1C(=O)N1CCOCC1 | – | inactive: -0.118%
O=C(NCCc1nc2ccccc2[nH]1)/C(=C/c1ccco1)NC(=O)c1ccccc1Br | inconclusive [inhibitor, single point] | –
Cc1cc(C(=O)Nc2ccc3c(c2)OCO3)cs1 | inconclusive [inhibitor, partial curve] | –
C[C@H]1CN([C@@H](C)CO)C(=O)CCCn2nncc2CO[C@@H]1CN(C)Cc1ccc(Cl)c(Cl)c1 | inconclusive [inhibitor, single point] | –
CC(C)CCNC1=CC(=O)CC(c2ccccc2)C1 (stereo not drawn) | inconclusive [inhibitor, single point] | –
COc1ccc(Cl)cc1NC(=O)CCCn1c(C)c2cnn(-c3ccccc3)c(=O)c2c1C | inconclusive [inhibitor, single point] | –
COc1ccc(C2=Nc3ccc(C)cc3NC(c3ccc(Cl)cc3)=N2)cc1 | inconclusive [inhibitor, partial curve] | –
CCOC(=O)C(C)Sc1nc(-c2ccccn2)ncc1OC (stereo not drawn) | active: 5.8 µM | –
Cc1ccc(Cl)cc1N1C(=O)N(Cc2ccc(C#N)cc2)c2ccccc2S1(=O)=O | inconclusive [inhibitor, single point] | –
O=C1Nc2ccc(F)cc2C12Nc1ccccc1-c1nnc(SCc3ccccc3F)nc1O2 (stereo not drawn) | inconclusive [inhibitor, partial curve] | –
OC(c1ccc(F)cc1)c1nc(-c2cnc3ccccc3c2)cs1 (stereo not drawn) | inconclusive [inhibitor, single point] | –
O=C(CN1CCCCCC1)Nc1nc2ccccc2s1 | – | inactive: -0.516%
CCNc1nc(NCC)n2c(SCC(=O)Nc3ccc(C)c(C)c3)nnc2n1 | – | inactive: -10.2%
Cc1ccc2cc(C3CC(c4cccs4)=NN3S(C)(=O)=O)c(Cl)nc2c1 (stereo not drawn) | – | inactive: -25.7%
O=c1c2c(nc3c(-c4ccc(Cl)cc4)c[nH]n13)CCCC2 | active: 3.98 µM | –
COC(=O)[C@]1(CC(C)C)N[C@H](c2ccc(-c3ccc(OC)cc3)cc2)[C@@H]2C(=O)N(C)C(=O)[C@@H]21 | active: 16.4 µM | –
CCOC(=O)C1CCN(C(=O)c2cc3c(-c4ccc(OC)c(OC)c4)nn(C)c3s2)CC1 | active: 20.6 µM | –
O=C(NC1=NCCS1)c1ccccc1Cl | – | inactive: 7.17%
CCOC(=O)c1c(-c2ccc(C)cc2C)csc1NC(=O)CSc1nnnn1C | active: 20.6 µM | –
CCOC(=O)c1ccccc1NC(=S)N1CCN(C2CCCCC2)CC1 | inconclusive [inhibitor, single point] | –
COc1cccc(/C=N/N2C(=O)CSC2=S)c1O | inconclusive [inhibitor, partial curve] | –
Cc1ccc(OCCC(=O)Nc2ccccc2C(=O)N2CCCCC2)cc1 | inconclusive [inhibitor, partial curve, poor fit] | –
